# Assay results from the supplement of paper PMC8728848.
# The other results are listed elsewhere or left out.
# B1: Siglec-9 (Homo sapiens), Q9Y336 (protein)
# chain: MLLLLLPLLWGRERAEGQTSKLLTMQSSVTVQEGLCVHVPCSFSYPSHGWIYPGPVVHGYWFREGANTDQDAPVATNNPARAVWEETRDRFHLLGDPHTKNCTLSIRDARRSDAGRYFFKMEKGSIKWNYKHHRLSVNVTALTHRPNILIPGTLESGCPQNLTCSVPWACEQGTPPMISWIGTSVSPLDPSTTRSSVLTLIPQPQDHGTSLTCQVTFPGASVTTNKTVHLNVSYPPQNLTMTVFQGDGTVSTVLGNGSSLSLPEGQSLRLVCAVDAVDSNPPARLSLSWRGLTLCPSQPSNPGVLELPWVHLRDAAEFTCRAQNPLGSQQVYLNVSLQSKATSGVTQGVVGGAGATALVFLSFCVIFVVVRSCRKKSARPAAGVGDTGIEDANAVRGSASQGPLTEPWAEDSPPDQPPPASARSSVGEGELQYASLSFQMVKPWDSRGQEATDTEYSEIKIHR
# Tests used:
# Experiment in all cases: glycan array binding signal (z-score within array); higher = stronger binding
# Settings in all cases: glycan notation: IUPAC condensed, linker removed; mutation: R120K
# [1] = target: Neu5Ac(a2-6)GlcNAc(b1-4)GlcNAc
# Method in brief: (§1)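 Glycan array data came from 3228 arrays in the Consortium for Functional Glycomics database, and only arrays with an available protein sequence were kept. Glycan names were put into IUPAC-condensed notation, and columns mapping to the same glycan were averaged. The binding signal is a within-array Z-score, averaged across arrays of one protein sequence run at different concentrations or buffers and across linkers. A negative Z-score can be read as non-binding.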
# [2] = target: Neu5Ac(a2-6)GlcNAc(b1-4)GlcNAc(b1-4)GlcNAc
# Method in brief: as §1
# Neu5Ac(a2-8)Neu5Ac = target: Neu5Ac(a2-8)Neu5Ac
# Method in brief: as §1
# [3] = target: Neu5Ac(a2-8)Neu5Ac(a2-3)Gal(b1-3)GalNAc(b1-4)[Neu5Ac(a2-3)]Gal(b1-4)Glc
# Method in brief: as §1
# [4] = target: Neu5Ac(a2-8)Neu5Ac(a2-3)Gal(b1-3)GalNAc(b1-4)[Neu5Ac(a2-8)Neu5Ac(a2-3)]Gal(b1-4)Glc
# Method in brief: as §1
# [5] = target: Neu5Ac(a2-8)Neu5Ac(a2-3)Gal(b1-4)Glc
# Method in brief: as §1
# [6] = target: Neu5Ac(a2-8)Neu5Ac(a2-3)Gal(b1-4)GlcNAc
# Method in brief: as §1
# [7] = target: Neu5Ac(a2-8)Neu5Ac(a2-3)[Gal(b1-3)GalNAc(b1-4)]Gal(b1-4)Glc
# Method in brief: as §1
# [8] = target: Neu5Ac(a2-8)Neu5Ac(a2-3)[GalNAc(b1-4)]Gal(b1-4)Glc
# Method in brief: as §1
# [9] = target: Neu5Ac(a2-8)Neu5Ac(a2-8)Neu5Ac
# Method in brief: as §1
# [10] = target: Neu5Ac(a2-8)Neu5Ac(a2-8)Neu5Ac(a2-3)Gal(b1-4)Glc
# Method in brief: as §1
# [11] = target: Neu5Ac(a2-8)Neu5Ac(a2-8)Neu5Ac(a2-3)[Gal(b1-3)GalNAc(b1-4)]Gal(b1-4)Glc
# Method in brief: as §1
# [12] = target: Neu5Ac(a2-8)Neu5Ac(a2-8)Neu5Ac(a2-3)[GalNAc(b1-4)]Gal(b1-4)Glc
# Method in brief: as §1
# [13] = target: Neu5Ac(a2-8)Neu5Ac(a2-8)Neu5Ac(a2-8)Neu5Ac(a2-3)[GalNAc(b1-4)]Gal(b1-4)Glc
# Method in brief: as §1
# [14] = target: Neu5Ac(a2-8)Neu5Gc(a2-3)Gal(b1-4)GlcNAc
# Method in brief: as §1
# [15] = target: Neu5Ac(b2-6)Gal(b1-4)GlcNAc
# Method in brief: as §1
# Neu5Ac(b2-6)GalNAc = target: Neu5Ac(b2-6)GalNAc
# Method in brief: as §1
# [16] = target: Neu5Ac9Ac(a2-3)Gal(b1-3)GlcNAc
# Method in brief: as §1
# [17] = target: Neu5Ac9Ac(a2-3)Gal(b1-4)GlcNAc
# Method in brief: as §1
# [18] = target: Neu5Ac9Ac(a2-6)Gal(b1-4)GlcNAc
# Method in brief: as §1
# [19] = target: Neu5Gc(a2-3)Gal(b1-3)GlcNAc
# Method in brief: as §1
# [20] = target: Neu5Gc(a2-3)Gal(b1-3)[Fuc(a1-4)]GlcNAc
# Method in brief: as §1
# Neu5Gc(a2-3)Gal(b1-4)Glc = target: Neu5Gc(a2-3)Gal(b1-4)Glc
# Method in brief: as §1
# [21] = target: Neu5Gc(a2-3)Gal(b1-4)GlcNAc
# Method in brief: as §1
# [22] = target: Neu5Gc(a2-3)Gal(b1-4)GlcNAc(b1-3)Gal(b1-4)GlcNAc(b1-2)Man(a1-3)[Neu5Gc(a2-3)Gal(b1-4)GlcNAc(b1-3)Gal(b1-4)GlcNAc(b1-2)Man(a1-6)]Man(b1-4)GlcNAc(b1-4)GlcNAc
# Method in brief: as §1
# [23] = target: Neu5Gc(a2-3)Gal(b1-4)[Fuc(a1-3)]GlcNAc
# Method in brief: as §1
# [24] = target: Neu5Gc(a2-6)Gal(b1-4)GlcNAc
# Method in brief: as §1
# Neu5Gc(a2-6)GalNAc = target: Neu5Gc(a2-6)GalNAc
# Method in brief: as §1
# [25] = target: Neu5Gc(a2-8)Neu5Ac(a2-3)Gal(b1-4)GlcNAc
# Method in brief: as §1
# [26] = target: Neu5Gc(a2-8)Neu5Gc(a2-3)Gal(b1-4)GlcNAc
# Method in brief: as §1
# [27] = target: Neu5Gc(a2-8)Neu5Gc(a2-3)Gal(b1-4)GlcNAc(b1-3)Gal(b1-4)GlcNAc
# Method in brief: as §1
# [28] = target: Neu5Gc(a2-8)Neu5Gc(a2-6)Gal(b1-4)GlcNAc
# Method in brief: as §1
# [29] = target: Neu5Gc(b2-6)Gal(b1-4)GlcNAc
# Method in brief: as §1
binder,measurement,setting,value
B1,glycan array binding signal (z-score),[1],-0.275
same,glycan array binding signal (z-score),[2],-0.589
same,glycan array binding signal (z-score),Neu5Ac(a2-8)Neu5Ac,-0.153
same,glycan array binding signal (z-score),[3],-0.078
same,glycan array binding signal (z-score),[4],-0.105
same,glycan array binding signal (z-score),[5],-0.004
same,glycan array binding signal (z-score),[6],-0.526
same,glycan array binding signal (z-score),[7],-0.203
same,glycan array binding signal (z-score),[8],0.082
same,glycan array binding signal (z-score),[9],0.026
same,glycan array binding signal (z-score),[10],0.028
same,glycan array binding signal (z-score),[11],0.362
same,glycan array binding signal (z-score),[12],-0.338
same,glycan array binding signal (z-score),[13],-0.075
same,glycan array binding signal (z-score),[14],-0.502
same,glycan array binding signal (z-score),[15],-0.52
same,glycan array binding signal (z-score),Neu5Ac(b2-6)GalNAc,-0.581
same,glycan array binding signal (z-score),[16],-0.113
same,glycan array binding signal (z-score),[17],-0.171
same,glycan array binding signal (z-score),[18],-0.302
same,glycan array binding signal (z-score),[19],-0.382
same,glycan array binding signal (z-score),[20],-0.221
same,glycan array binding signal (z-score),Neu5Gc(a2-3)Gal(b1-4)Glc,0.033
same,glycan array binding signal (z-score),[21],0.036
same,glycan array binding signal (z-score),[22],-0.323
same,glycan array binding signal (z-score),[23],-0.459
same,glycan array binding signal (z-score),[24],-0.242
same,glycan array binding signal (z-score),Neu5Gc(a2-6)GalNAc,-0.34
same,glycan array binding signal (z-score),[25],-0.463
same,glycan array binding signal (z-score),[26],-0.607
same,glycan array binding signal (z-score),[27],-0.414
same,glycan array binding signal (z-score),[28],-0.909
same,glycan array binding signal (z-score),[29],-0.2
